# Growth of fresh clinical P. falciparum isolates by hypoxanthine uptake over 42 h; for most isolates 1.6-1,647 nM mefloquine, 0.044-87 nM artesunate, 10-10,256 nM chloroquine, 2.4-236 nM lumefantrine. EC50, lower = more sensitive; slope from the same fit, higher = steeper. No active / inactive call. Fits with a coefficient of variation above 100% are not listed here; 15-28% of fits exceed 15%. Isolates are numbered anew.
# Experiments:
# lumefantrine [1] = compound: T1, CCCCN(CCCC)CC(O)c1cc(Cl)cc2c1-c1ccc(Cl)cc1/C2=C/c1ccc(Cl)cc1 [lumefantrine]; test: slope of the dose-response curve (dimensionless); higher = steeper concentration-effect curve
# Procedure: (§1)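 Hypoxanthine uptake by fresh isolates, duplicate serial dilutions, 24 h of drug plus 18 h after the label; sigmoid fit per isolate.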
# mefloquine [2] = compound: T2, OC(c1cc(C(F)(F)F)nc2c(C(F)(F)F)cccc12)C1CCCCN1 [mefloquine]; test: as above
# Procedure: as §1
# artesunate [3] = compound: T3, C[C@H]1[C@H](OC(=O)CCC(=O)O)O[C@@H]2O[C@@]3(C)CC[C@H]4[C@H](C)CC[C@@H]1[C@@]24OO3 [artesunate]; test: as above
# Procedure: as §1
# chloroquine [4] = compound: T4, CCN(CC)CCCC(C)Nc1ccnc2cc(Cl)ccc12 [chloroquine]; test: as above
# Procedure: as §1
# lumefantrine [5] = compound: T1, lumefantrine
# Procedure: as §1
# mefloquine [6] = compound: T2, mefloquine
# Procedure: as §1
# artesunate [7] = compound: T3, artesunate
# Procedure: as §1
# chloroquine [8] = compound: T4, chloroquine
# Procedure: as §1
Test System,slope (lumefantrine [1]),slope (mefloquine [2]),slope (artesunate [3]),slope (chloroquine [4]),EC50 of parasite growth (lumefantrine [5]) [µg/mL],EC50 of parasite growth (mefloquine [6]) [µg/mL],EC50 of parasite growth (artesunate [7]) [µg/mL],EC50 of parasite growth (chloroquine [8]) [µg/mL]
"Plasmodium falciparum isolate 374 (pfmdr1 allele: 1042D, pfmdr1 copies: 1)",2.45,2.39,5.89,4.67,0.00278,0.00953,0.000233,0.256
"Plasmodium falciparum isolate 18 (pfmdr1 allele: 86N, 1042N, pfmdr1 copies: 1)",2.27,2.28,4.34,3.48,0.0305,0.0141,0.000293,0.151
"Plasmodium falciparum isolate 389 (pfmdr1 allele: 86N, 1042N, pfmdr1 copies: 3)",3.46,3.57,10,2.41,0.0367,0.0835,0.000781,0.0396
"Plasmodium falciparum isolate 194 (pfmdr1 allele: 86N, 1042N, pfmdr1 copies: 2)",2.11,3.44,6.92,6.69,0.0343,0.0783,0.00155,0.119
"Plasmodium falciparum isolate 171 (pfmdr1 allele: 86N, 1042N, pfmdr1 copies: 1)",2.28,2.62,9.99,4.67,0.0258,0.0384,0.000523,0.367
"Plasmodium falciparum isolate 222 (pfmdr1 allele: 86N, 1042N, pfmdr1 copies: 2)",2.05,1.62,,5.97,0.00298,0.00502,,0.0798
"Plasmodium falciparum isolate 251 (pfmdr1 allele: 86N, 1042N, pfmdr1 copies: 2)",2.58,2.95,3.34,3.5,0.0193,0.0423,0.000897,0.343
"Plasmodium falciparum isolate 16 (pfmdr1 allele: 86N, 1042N, pfmdr1 copies: 1)",2.33,2.52,7.26,8.17,0.0131,0.0294,0.00119,0.174
"Plasmodium falciparum isolate 328 (pfmdr1 allele: 86N, 1042N, pfmdr1 copies: 1)",2.59,3.31,7.74,3.93,0.0187,0.0207,0.00116,0.0574
"Plasmodium falciparum isolate 342 (pfmdr1 allele: 86N, 1042N, pfmdr1 copies: 1)",3.56,3.28,,1.91,0.0486,0.0514,,0.0945
"Plasmodium falciparum isolate 53 (pfmdr1 allele: 86N, 1042N, pfmdr1 copies: 2)",3.66,2.21,6.6,9.96,0.016,0.0348,0.00133,0.0446
"Plasmodium falciparum isolate 304 (pfmdr1 allele: 86N, 1042N, pfmdr1 copies: 1)",2.11,3.82,,2.78,0.0561,0.0475,,0.0973
"Plasmodium falciparum isolate 395 (pfmdr1 allele: 86N, 1042N, pfmdr1 copies: 2)",3.29,2.97,,2.14,0.078,0.0656,,0.0397
"Plasmodium falciparum isolate 207 (pfmdr1 allele: 86N, 1042N, pfmdr1 copies: 4)",9.98,5.18,,7.51,0.122,0.136,,0.117
"Plasmodium falciparum isolate 192 (pfmdr1 allele: 86N, 1042N, pfmdr1 copies: 2)",8.2,5,,4.07,0.0523,0.0955,,0.11
"Plasmodium falciparum isolate 422 (pfmdr1 allele: 86N, 1042N, pfmdr1 copies: 3)",10.7,3.79,,4.75,0.0618,0.0914,,0.0924
"Plasmodium falciparum isolate 372 (pfmdr1 allele: 86N, 1042N, pfmdr1 copies: 1)",2.17,3.96,,3.55,0.0286,0.0507,,0.0716
"Plasmodium falciparum isolate 341 (pfmdr1 allele: 86N, 1042N, pfmdr1 copies: 2)",2.67,2.49,,2.56,0.0751,0.0755,0.000801,0.0541
"Plasmodium falciparum isolate 248 (pfmdr1 allele: 86N, 1042N, pfmdr1 copies: 1)",1.11,3.39,,3.01,0.0442,0.0384,,0.122
"Plasmodium falciparum isolate 178 (pfmdr1 allele: 86N, 1042N, pfmdr1 copies: 2)",2.9,,,3.02,0.0587,,,0.146
"Plasmodium falciparum isolate 384 (pfmdr1 allele: 86N, 1042N, pfmdr1 copies: 1)",2.04,2.37,,4.98,0.00784,0.0204,,0.14
"Plasmodium falciparum isolate 339 (pfmdr1 allele: 86N, 1042N, pfmdr1 copies: 1)",4.98,2.19,,2.89,0.0463,0.0077,,0.062
"Plasmodium falciparum isolate 418 (pfmdr1 allele: 86N, 1042N, pfmdr1 copies: 1)",1.09,,1.51,2.53,0.00288,,0.000107,0.0449

Test System,slope (lumefantrine [1]),slope (mefloquine [2]),slope (artesunate [3]),slope (chloroquine [4]),EC50 of parasite growth (lumefantrine [5]) [µg/mL],EC50 of parasite growth (mefloquine [6]) [µg/mL],EC50 of parasite growth (artesunate [7]) [µg/mL],EC50 of parasite growth (chloroquine [8]) [µg/mL]
"Plasmodium falciparum isolate 451 (pfmdr1 allele: 86N, 1042N, pfmdr1 copies: 2)",0.68,2.59,,2.77,0.0416,0.0376,,0.0437
"Plasmodium falciparum isolate 461 (pfmdr1 allele: 86N, 1042N, pfmdr1 copies: 1)",3.66,,5.35,2.41,0.0428,,0.0016,0.135
"Plasmodium falciparum isolate 431 (pfmdr1 allele: 86N, 1042N, pfmdr1 copies: 3)",2.58,3.78,,2.79,0.0536,0.0574,,0.0353
"Plasmodium falciparum isolate 175 (pfmdr1 allele: 86N, 1042N, pfmdr1 copies: 1)",2.59,3.2,,3.55,0.0205,0.0293,,0.127
"Plasmodium falciparum isolate 330 (pfmdr1 allele: 86N, 1042N, pfmdr1 copies: 1)",1.43,2.32,,2.62,0.0198,0.0303,,0.044
"Plasmodium falciparum isolate 310 (pfmdr1 allele: 1042D, pfmdr1 copies: 1)",1.81,1.63,,3.23,0.00239,0.00658,,0.103
"Plasmodium falciparum isolate 234 (pfmdr1 allele: 86Y, pfmdr1 copies: 1)",1.77,3.3,,4.43,0.0487,0.0551,,0.082
"Plasmodium falciparum isolate 146 (pfmdr1 allele: 86N, 1042N, pfmdr1 copies: 3)",2.78,2.83,,1.81,0.0435,0.0594,,0.0296
"Plasmodium falciparum isolate 217 (pfmdr1 allele: 86N, 1042N, pfmdr1 copies: 2)",1.78,3.04,,2.8,0.028,0.0704,,0.0748
"Plasmodium falciparum isolate 336 (pfmdr1 allele: 86N, 1042N, pfmdr1 copies: 2)",2.43,3.02,,9.87,0.0166,0.0386,,0.0866
"Plasmodium falciparum isolate 470 (pfmdr1 allele: 86N, 1042N, pfmdr1 copies: 1)",0.974,7.2,,3.04,0.0592,0.0474,,0.136
"Plasmodium falciparum isolate 340 (pfmdr1 allele: 86N, 1042N, pfmdr1 copies: 1)",0.847,1.86,,3.54,0.0278,0.0111,,0.0892
"Plasmodium falciparum isolate 151 (pfmdr1 allele: 86N, 1042N, pfmdr1 copies: 1)",2.03,2.89,,4.99,0.00826,0.023,,0.172
"Plasmodium falciparum isolate 452 (pfmdr1 allele: 86N, 1042N, pfmdr1 copies: 3)",3.19,2.43,,3.02,0.0272,0.023,,0.0765
"Plasmodium falciparum isolate 56 (pfmdr1 allele: 86N, 1042N, pfmdr1 copies: 1)",10,,,4.63,0.054,,,0.164
"Plasmodium falciparum isolate 177 (pfmdr1 allele: 86N, 1042N, pfmdr1 copies: 1)",1.15,2.82,,3.75,0.0605,0.053,,0.0987
"Plasmodium falciparum isolate 331 (pfmdr1 allele: 86N, 1042N, pfmdr1 copies: 1)",1.65,1.85,,5.14,0.0096,0.0224,,0.068
"Plasmodium falciparum isolate 78 (pfmdr1 allele: 86N, 1042N, pfmdr1 copies: 2)",1.44,2.2,,5.44,0.0497,0.0786,,0.186
"Plasmodium falciparum isolate 137 (pfmdr1 allele: 86N, 1042N, pfmdr1 copies: 1)",1.06,,2.24,1.89,0.00253,,0.000265,0.133
"Plasmodium falciparum isolate 486 (pfmdr1 allele: 1042D, pfmdr1 copies: 1)",3.29,3.22,,9.18,0.00928,0.0286,,0.473
"Plasmodium falciparum isolate 348 (pfmdr1 allele: 86N, 1042N, pfmdr1 copies: 1)",1.76,1.82,,15.2,0.023,0.0435,,0.0829
"Plasmodium falciparum isolate 26 (pfmdr1 allele: 86N, 1042N, pfmdr1 copies: 2)",3.91,3.72,,3.6,0.0369,0.0462,,0.0435

# Source: the supplement of paper PMC3722116
